The text below walks through data of article PMC5501724, “Structural Basis for Specific Interaction of TGFβ Signaling Regulators SARA/Endofin with HD-PTP” (Structure(London, England:1993), 2017).

No constants are given. Whether binding was seen depends on the method and setting. Binding seen in cells or lysates may run through a third protein. Some results given as binding are weak or reduced against the parent protein; the word gives no strength. Where a sequence is shown, tags or fusion partners need not be part of it.

Test [1] addresses T1, HA-HD-PTP_(Bro1-CC) R198M, expressed in cells (human) (UniProt Q9H3S7).
T1 sequence: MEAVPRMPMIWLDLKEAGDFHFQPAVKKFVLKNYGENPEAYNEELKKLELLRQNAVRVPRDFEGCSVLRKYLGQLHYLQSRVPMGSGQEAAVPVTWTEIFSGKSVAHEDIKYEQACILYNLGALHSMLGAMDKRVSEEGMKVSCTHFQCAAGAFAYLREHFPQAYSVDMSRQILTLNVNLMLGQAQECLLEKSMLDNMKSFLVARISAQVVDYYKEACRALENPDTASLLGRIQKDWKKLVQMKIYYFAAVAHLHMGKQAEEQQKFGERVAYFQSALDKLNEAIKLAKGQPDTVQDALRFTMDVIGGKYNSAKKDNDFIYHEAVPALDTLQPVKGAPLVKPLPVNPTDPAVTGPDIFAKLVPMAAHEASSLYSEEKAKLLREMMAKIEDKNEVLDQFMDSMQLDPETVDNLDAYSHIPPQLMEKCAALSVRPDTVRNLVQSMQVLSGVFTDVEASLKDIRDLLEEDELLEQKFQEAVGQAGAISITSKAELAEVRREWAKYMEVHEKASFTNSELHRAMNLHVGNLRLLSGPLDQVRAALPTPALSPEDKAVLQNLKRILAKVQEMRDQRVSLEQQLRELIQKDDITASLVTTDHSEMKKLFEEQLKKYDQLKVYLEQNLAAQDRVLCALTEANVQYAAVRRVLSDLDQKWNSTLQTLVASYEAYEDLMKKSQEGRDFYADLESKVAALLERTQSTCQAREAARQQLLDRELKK
The test can be described thus: co-IP; HA-tagged HD-PTP constructs expressed in cells; lysates in IP1 buffer (25 mM Tris-HCl pH 7.5, 40 mM NaCl, 0.5% IGEPAL); anti-HA immunoprecipitates blotted for endogenous endofin or SARA.

Test [2] deals with T2, HA-HD-PTP_(Bro1-CC) R69L, expressed in cells (human) (UniProt Q9H3S7).
T2 sequence: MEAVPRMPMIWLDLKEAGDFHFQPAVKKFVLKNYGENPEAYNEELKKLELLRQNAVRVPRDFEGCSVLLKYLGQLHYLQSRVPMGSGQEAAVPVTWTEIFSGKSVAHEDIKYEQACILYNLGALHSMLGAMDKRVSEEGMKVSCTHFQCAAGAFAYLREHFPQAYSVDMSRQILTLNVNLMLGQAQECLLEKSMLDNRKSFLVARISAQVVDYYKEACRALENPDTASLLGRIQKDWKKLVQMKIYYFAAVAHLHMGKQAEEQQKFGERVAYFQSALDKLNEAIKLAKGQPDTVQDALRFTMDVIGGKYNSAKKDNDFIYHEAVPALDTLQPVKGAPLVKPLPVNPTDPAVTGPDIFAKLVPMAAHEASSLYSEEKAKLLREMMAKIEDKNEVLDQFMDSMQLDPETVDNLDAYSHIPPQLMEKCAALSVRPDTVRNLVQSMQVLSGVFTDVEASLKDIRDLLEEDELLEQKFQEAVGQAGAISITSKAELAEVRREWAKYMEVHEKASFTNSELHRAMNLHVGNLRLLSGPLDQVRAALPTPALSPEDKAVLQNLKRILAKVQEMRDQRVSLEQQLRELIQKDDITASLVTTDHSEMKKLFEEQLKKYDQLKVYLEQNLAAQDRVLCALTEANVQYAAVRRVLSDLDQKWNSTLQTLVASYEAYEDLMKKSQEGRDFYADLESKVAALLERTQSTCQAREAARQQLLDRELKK
The description is as above.

Test [3] concerns the target T3, His6-HD-PTP_(Bro1-CC) (1-714), bacterially expressed (human) (UniProt Q9H3S7).
T3 sequence: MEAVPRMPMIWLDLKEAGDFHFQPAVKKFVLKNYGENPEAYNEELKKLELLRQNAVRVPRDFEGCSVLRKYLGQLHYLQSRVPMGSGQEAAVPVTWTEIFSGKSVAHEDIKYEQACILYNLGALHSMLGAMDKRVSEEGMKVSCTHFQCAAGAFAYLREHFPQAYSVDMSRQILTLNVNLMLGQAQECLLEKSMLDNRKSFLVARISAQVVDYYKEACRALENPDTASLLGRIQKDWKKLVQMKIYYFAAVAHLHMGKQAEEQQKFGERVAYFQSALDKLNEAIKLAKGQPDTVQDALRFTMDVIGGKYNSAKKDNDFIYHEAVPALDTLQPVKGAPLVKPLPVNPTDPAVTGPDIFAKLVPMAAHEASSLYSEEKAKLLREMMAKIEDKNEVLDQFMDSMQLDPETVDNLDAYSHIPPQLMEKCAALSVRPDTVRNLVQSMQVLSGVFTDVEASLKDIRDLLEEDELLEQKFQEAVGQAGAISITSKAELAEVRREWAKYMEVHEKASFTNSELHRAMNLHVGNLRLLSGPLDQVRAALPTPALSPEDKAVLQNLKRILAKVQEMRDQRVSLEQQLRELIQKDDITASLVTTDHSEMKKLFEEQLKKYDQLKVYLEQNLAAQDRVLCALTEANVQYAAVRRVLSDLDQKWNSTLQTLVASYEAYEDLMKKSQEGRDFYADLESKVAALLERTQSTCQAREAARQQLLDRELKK
The test can be described thus: co-IP; 20 μl in vitro translated 35S-endofin(1-84)-strep incubated with 5 μg bacterially expressed His6-HD-PTP Bro1-CC in IP2 buffer (20 mM Hepes pH 7.4, 100 mM NaCl, 1 mM MgCl2, 1% Triton X-100), 4°C; anti-His antibody and protein A-sepharose; phosphorimaging; only the target purified.

Consider “endogenous endofin (from UniProt Q7Z3T8 1-1539)”, for which the binding entry in test [1] and in test [2] was “binds” each time.

B1: endofin_(1–84)-strep, in vitro translated (domain or fragment, UniProt Q7Z3T8 1-84)
chain: MDSYFKAAVSDLDKLLDDFEQNPDEQDYLQDVQNAYDSNHCSVSSELASSQRTSLLPKDQECVNSCASSETSYGTNESSLNEKT
modifications: 35S-methionine
For B1, the binding entry in test [3] is “binds”.
